In all, about 360,000 compounds went through this assay and about 17,000 (4.7%) were called active. The inconclusive results got no clear call from the source; some entries with a clear call stand among them for comparison. No stated cut-off is given here; in the data, active means activity change below about -50%; inconclusive means mostly about -30% to -49%; inactive means weaker than that.
assay: qHTS for Inhibitors of Inflammasome Signaling: IL-1-beta AlphaLISA Primary Screen; conditions: THP-1 LPS/ATP IL-1B secretion, 16 h; at 57.5 µM, hits give low values
Outline: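 Secreted IL-1B measured by AlphaLISA bead assay after 16 h compound exposure of THP-1 cells; compounds (final up to 57.5 uM) added 1 h before LPS (250 ng/mL) and ATP (1.25 mM) stimulation; lower signal means less secretion.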
On the % scale 0 is the no-effect control and ±100 the full control effect.

| SMILES | activity change |
| --- | --- |
| COc1ccc2cc3cc(C(=O)N(C)C4CCCCC4)oc3nc2c1 | inconclusive: -40.6% |
| COc1ccc(Nc2ncnc3c2cnn3Cc2ccc(C)cc2)cc1 | inconclusive: -33.5% |
| COc1ccc(N(CC(=O)N2CCc3ccccc3C2)S(=O)(=O)c2ccccc2)cc1 | inconclusive: -47.6% |
| COc1ccc2c(c1)c(=O)oc1c(C)c(OCc3cc(C(=O)O)oc3C)ccc12 | inconclusive: -30% |
| COc1ccc(-c2sc3ccccc3c2C#Cc2cncn2C)cc1 | inconclusive: -40.9% |
| CCOc1ccc(-c2nnc(-c3ccccc3)o2)cc1 | inconclusive: -37.6% |
| CCOC(=O)N1CCN(C(=O)c2oc(=O)c3ccccc3c2-c2ccc(C)cc2)CC1 | inconclusive: -39% |
| CC(C)C[C@@H]1CN(CCCC[C@H]2CNC(=O)C(=O)N2CCC2CCCCC2)C(=O)C(=O)N1Cc1ccccc1 | inconclusive: -38.8% |
| COc1ccc(NC(=O)c2cc(-c3ccc(F)cc3OC)n[nH]2)c(C)c1 | inconclusive: -34.1% |
| CN1C(=O)/C(=N\OC(=O)c2cccc3ccccc23)c2ccccc21 | active: -99.6% |
| CN1CCN(S(=O)(=O)c2ccc(Sc3nnnn3-c3ccccc3)c([N+](=O)[O-])c2)CC1 | active: -74% |
| COc1ccc(CNC(=O)CN(C)CC(=O)Nc2ccccc2Br)cc1 | inconclusive: -31.1% |
| COCCN(C(=O)CSc1nnc(Nc2ccccc2F)s1)c1c(N)n(Cc2ccccc2)c(=O)[nH]c1=O | inconclusive: -30.4% |
| CCOC(=O)Cc1[nH]nc2c1C(c1ccoc1)C(C#N)=C(N)O2 (stereo not drawn) | inconclusive: -42.6% |
| CC(C)(C)C(=O)NC1CCN(S(=O)(=O)c2cccc(C(F)(F)F)c2)CC1 | inconclusive: -34.7% |
| Cc1nc2ccccc2c2oc(C(=O)NC3CC3)cc12 | inconclusive: -30.7% |
| COc1cc(NC(=O)CCN2CCN(c3ccccc3F)CC2)cc(OC)c1 | inconclusive: -36.5% |
| COCCn1c(C)cc(C(=O)COC(=O)c2ccc(N3CCCC3=O)cc2)c1C | inconclusive: -32.5% |
| CCOc1cc(C(=S)N2CCOCC2)ccc1OS(=O)(=O)c1ccc(Br)cc1 | inconclusive: -38.5% |
| Fc1ccccc1COc1ccc(Br)cc1CNCC1CCCO1 (stereo not drawn) | inconclusive: -47.2% |
| O=C(CN1CCCCC1CO)c1ccc(OC(F)F)cc1 (stereo not drawn) | inconclusive: -30.5% |
| Cc1ccc(NC(=O)C2CCN(c3ncnc4c3nc3n4CCCCC3)CC2)cc1Cl | inconclusive: -48.6% |

| SMILES | activity change |
| --- | --- |
| O=C(Nc1ccc(Cl)cc1)NC1CCCCC1Cc1ccco1 (stereo not drawn) | inactive: -7.88% |
| Cc1cccc(C)c1NC(=O)C(c1ccccc1OC(F)(F)F)N1CCN(C/C=C/c2ccccc2)CC1 (stereo not drawn) | inconclusive: -43.7% |
| CN(C)CCCCCN(C)Cc1cc2ccccc2o1 | inconclusive: -46.5% |
| CCn1c(=O)n(CC)c2cc(N3CCCC3)c(NC(=O)c3ccccc3)cc21 | inconclusive: -43.1% |
| O=C1N=c2ccccc2=C1c1sc(=S)n(-c2ccc(O)cc2)c1O | inconclusive: -31.9% |
| COc1ccc(NC(=O)c2cc(-c3cc(Cl)ccc3OC)n[nH]2)c(C)c1 | inconclusive: -47% |
| COc1cccc(CN2CCN(S(=O)(=O)c3ccc(Cl)s3)CC2)c1 | active: -50.6% |
| CC(=O)n1cc(/C=N/NC(=O)c2cccc(O)c2)c2ccccc21 | inconclusive: -33.4% |
| C[C@H](O)C#Cc1cnc2c(c1)C(=O)N([C@H](C)CO)C[C@@H](C)[C@H](CN(C)C(=O)Nc1ccc(C(F)(F)F)cc1)O2 | inconclusive: -40.9% |
| CC(=O)C1(C)CCC2C3C=C(C)C4=CC(=O)CCC4(C)C3CCC21C (stereo not drawn) | active: -73.2% |
| COc1ccc([C@H]2CC(=O)C=C(c3ccc(Cl)c(C(F)(F)F)c3)C2)cc1 | inactive: 0% |
| C/C(=N\NC(=S)NCc1ccccc1)c1ccc2c(c1)OCCO2 | inactive: 16.2% |
| O=S(=O)(c1ccccc1)c1nc(-c2ccccc2)oc1N1CCCCC1 | inconclusive: -41.4% |
| COc1ccc(-c2nc3ccc(Br)cn3c2Cc2ccccc2C(F)(F)F)cc1OC | inconclusive: -30.9% |
| CCC1CCCN1Cn1cnc2c([nH]c3ccc(Cl)cc32)c1=O (stereo not drawn) | inconclusive: -36.5% |
| CCOC(=O)c1[nH]cnc1C(=O)Nc1ccccn1 | active: -63.9% |
| CCOc1ccc(-c2ccc(SC)nn2)cc1 | inconclusive: -38.3% |
| CCOC(=O)c1ccc(N2C(=O)C(CC(=O)NC)N(CCc3ccc(OC)c(OC)c3)C2=S)cc1 (stereo not drawn) | inconclusive: -32.5% |
| C/C(=N\NC(=O)CSCc1ccc([N+](=O)[O-])cc1)c1ccccc1 | inconclusive: -33% |
| O=C1CC(N(CCc2ccccc2)C(=S)Nc2ccccc2)C(=O)N1c1ccccc1 (stereo not drawn) | inconclusive: -36.6% |
| S=C1NCN(Cc2cccnc2)CN1c1cccc(Cl)c1 | inactive: 29.7% |
| CC(=O)Nc1cccc(OCc2ccc(S(=O)(=O)Cc3ccccc3)cc2)c1 | inactive: 16.4% |

| SMILES | activity change |
| --- | --- |
| COc1ccc(-c2noc(N3CCCC(C(=O)Nc4ccc(C(C)=O)cc4)C3)n2)cc1 (stereo not drawn) | inconclusive: -48.4% |
| Cc1ccc2c(CN(C)Cc3ccccc3)cc(=O)oc2c1C | inactive: 1.69% |
| CCCc1nc(NC(=O)c2ccccc2)nc(NC(=O)c2ccccc2)n1 | inconclusive: -32% |
| Cc1ccc(Cn2c(=O)c3ccccc3n3nc(C)cc23)cc1 | inactive: 16% |
| O=C1OCCOC2CCCc3oc(-c4ccccc4)c1c32 (stereo not drawn) | inactive: 10.6% |
| CC(=O)c1ccc(OCC(O)CN2C(C)CCCC2C)cc1 (stereo not drawn) | inactive: -4.28% |
| N#CCc1nc2c3c4c(sc3ncn2n1)CCCC4 | inconclusive: -31.5% |
| OCC1(Cc2ccccc2)CCCN(Cc2ccc3c(c2)OCCO3)C1 (stereo not drawn) | inactive: -13.9% |
| COc1ccc(-c2csc(NC(=O)CSCc3c(C)noc3C)n2)cc1OC | inconclusive: -40% |
| CCOc1cccc(OCCOCCOc2ccccc2C(C)=O)c1 | inactive: 8.86% |
| CC1(c2ccc3noc(-c4ccccc4)c3c2)OCCO1 | inconclusive: -46.7% |
| O=C(CC1C(=O)NCCN1C(=O)Nc1ccccc1)Nc1cc(Cl)cc(Cl)c1 (stereo not drawn) | inconclusive: -38.9% |
| C/C(=N\NC(=O)c1nnn(-c2nonc2N)c1-c1ccc2c(c1)OCO2)c1ccc(F)cc1 | inactive: -0.595% |
| Cc1ccc(O)c(C2=NNC(c3ccc(Cl)cc3)C2)c1 (stereo not drawn) | inactive: 1.81% |
| O=C(Nc1ccc2c(c1)OCCO2)c1ccc(Br)s1 | active: -76.5% |
| COc1ccc(/C=C2\SC(=O)N(CCC(=O)N3CCCCC3CCO)C2=O)cc1 (stereo not drawn) | inactive: -16.7% |
| CCC(N=c1cc(-c2ccc(OC)c(OC)c2)oc2ccc(C)cc12)C(=O)O (stereo not drawn) | inactive: -7.86% |
| COc1cc2[nH]c(C(=O)NCc3ccccc3)cc2c(OC)c1OC | active: -64.7% |
| Cc1cccc(N2CCN(C(c3ccncc3)c3nnnn3C(C)(C)C)CC2)c1C (stereo not drawn) | inconclusive: -35.8% |
| COc1ccsc1NC(=O)OCc1ccc(Cl)cc1 | inconclusive: -34.9% |
| O=C1C(=Cc2ccccc2Cl)CCc2ccccc21 | inconclusive: -31.5% |
| C#CC[N+]1(CC#Cc2cccc3ccccc23)CCOCC1 | inconclusive: -36.5% |

| SMILES | activity change |
| --- | --- |
| Cn1c(=O)n(CC(=O)O)c(=O)c2c1nc1n2CCCN1CCc1ccccc1 | inactive: 7.68% |
| O=C(CSc1nc(-c2ccco2)cc(C(F)(F)F)n1)Nc1ccccc1C(F)(F)F | inconclusive: -38.3% |
| COc1ccccc1OCCOc1ccc(/C=C2\C(=N)N3N=C(S(C)(=O)=O)SC3=NC2=O)cc1 | inactive: -17% |
| Cc1cnc(C=O)c2cccc([N+](=O)[O-])c12 | inconclusive: -33.6% |
| CCOc1cc(CNCCCN2CCOCC2)cc(Br)c1OCc1ccccc1Cl | active: -101% |
| O=S(=O)(N1CCCCC1)N1CCN(CC(O)COc2ccc3cc(Br)ccc3c2)CC1 (stereo not drawn) | active: -52.4% |
| COc1ccc(C(=O)Nc2cnc(NC(=O)c3cccs3)cc2C)cc1 | inactive: 4.64% |
| Cc1ccc2cc(CN(Cc3ccco3)C(=O)NCc3ccccc3)c(=O)[nH]c2c1C | inconclusive: -39.1% |
| CCOc1cc(CNc2ccc(OC)cc2)cc(Br)c1OCC(=O)NC(C)(C)C | inconclusive: -43.2% |
| COc1ccc2c(c1)C=CC1(O2)N(CCO)c2ccccc2C1(C)C (stereo not drawn) | inconclusive: -30.2% |
| Cc1[nH]nc(N)c1-c1ccccc1 | inconclusive: -42.5% |
| COc1cccc(C=CC(=O)C=CC=Cc2ccccc2)c1 | active: -59.4% |
| CC1(S(=O)(=O)O)CC(=O)c2ccccc2C1=O (stereo not drawn) | inconclusive: -49.6% |
| C[C@H](CO)N1C[C@H](C)[C@@H](CN(C)Cc2cccc(F)c2)Oc2cc(-c3cccc(C#N)c3)ccc2S1(=O)=O | inconclusive: -30.5% |
| CCCN1CCc2c(sc(NC(=O)C3CCN(S(=O)(=O)c4cccs4)CC3)c2C(N)=O)C1 | active: -62.2% |
| Cc1ccc(NC(C(=O)c2ccccc2)c2ccccc2)cc1 (stereo not drawn) | active: -73.4% |
| CC(=O)N1CCN(c2ccc(NC(=O)c3ccc(Cl)c([N+](=O)[O-])c3)cc2)CC1 | active: -52.4% |
| CCOC(=O)C(C)Sc1nnc(-c2c[nH]c3ccccc23)n1C (stereo not drawn) | inconclusive: -38% |
| CCCC(=O)OCCNc1cc(SCc2ccco2)c2nonc2c1[N+](=O)[O-] | inconclusive: -47.1% |
| O=C(Nc1cccc(Cl)c1)OC1CCCCc2cccnc21 (stereo not drawn) | active: -79.7% |
| COc1ccc(C(=O)N/N=C/c2c(CO)cnc(C)c2O)cc1 | inactive: 32.6% |
| COc1cccc(CNC(=O)CCNC(=O)N2CCn3c2nc2ccccc23)c1 | inconclusive: -47.7% |

From PubChem BioAssay AID743279 (National Center for Advancing Translational Sciences (NCATS), 2014)
